# Experimental data from PubChem BioAssay (NCATS).
# This list was built around the results that the source calls inconclusive (neither active nor inactive); the mix of calls is not that of the screen. For part of these data: Potencies of inconclusive entries are left out as doubtful fits. Active and inactive are the calls of the source. Unless noted, calls follow the shape of the dose curve; as a rule, active = well fitted curve in the direction sought with a large enough effect; inconclusive = small, poorly fitted or top-dose-only effect, or another doubt; inactive = no such curve, though single readings can be large; an effect the other way counts as inactive or inconclusive.
# How the values were obtained:
# [1] = test system: Zika virus NS2B-NS3 protease (linked construct); assay: Primary screen NINDS Rhodamine qHTS for Zika virus inhibitors (AID 1347160); settings: activity change, negative = inhibition: at 57.1 µM (top of the series) unless noted; also: nearly all actives have a fitted effect of over 55% in size; also: potency is read from the fitted curve at half-maximal effect
# Outline: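 Each compound, titrated, sat 15 min with 25 nM linked protease before 1.5 microM Rhodamine110 substrate went in. Fluorescence gain over the next 15 min, in pH 8.0 Tris with Tween 20, gave Hill-fitted curves.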
# [2] = molecular target: Cytochrome P450 2D6 (Homo sapiens) (UniProt P10635); assay: Cytochrome P450 family 2 subfamily D member 6 (CYP2D6) small molecule antagonists: luciferase biochemical (cell-free) qHTS assay (AID 1645840; active = well fitted curve in the direction sought with a large enough effect in the repeat runs; inconclusive = weak or mixed curves; inactive = no such curve, though single readings can be large; an effect the other way counts as inactive or inconclusive; also: nearly all actives have a fitted effect of over 55% in size; also: potency is read from the fitted curve at half-maximal effect)
# Sequence of UniProt P10635 (P10635 whole entry, looked up): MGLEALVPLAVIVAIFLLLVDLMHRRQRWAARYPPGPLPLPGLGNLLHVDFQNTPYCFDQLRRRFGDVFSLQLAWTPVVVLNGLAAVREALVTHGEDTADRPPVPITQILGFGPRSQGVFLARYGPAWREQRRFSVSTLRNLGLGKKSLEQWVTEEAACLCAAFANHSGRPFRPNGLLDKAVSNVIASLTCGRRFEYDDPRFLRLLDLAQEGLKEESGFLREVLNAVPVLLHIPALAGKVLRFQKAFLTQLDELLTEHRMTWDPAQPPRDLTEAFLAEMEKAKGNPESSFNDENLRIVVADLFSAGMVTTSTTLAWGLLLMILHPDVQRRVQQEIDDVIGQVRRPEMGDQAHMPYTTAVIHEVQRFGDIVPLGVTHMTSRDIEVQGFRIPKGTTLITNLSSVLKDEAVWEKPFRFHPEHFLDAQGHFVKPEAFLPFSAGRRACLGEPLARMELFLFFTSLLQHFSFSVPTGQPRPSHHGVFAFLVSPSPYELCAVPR
# Outline: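 P450-Glo CYP2D6 system: proluciferin substrate converted by enzyme to luciferin, read by luminescence proportional to activity. Enzyme-substrate mix with compound 10 min at room temperature, then NADPH regeneration 1 h before detection reagent.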
# [3] = molecular target: Phospholipid hydroperoxide glutathione peroxidase GPX4 (Homo sapiens) (UniProt P36969); assay: Primary qHTS Assay for Inhibitors of Recombinant Selenoprotein Glutathione Peroxidase 4 (GPX4) (AID 1845192); also: nearly all actives have a fitted effect of over 65% in size; also: potency is read from the fitted curve at half-maximal effect
# Sequence of UniProt P36969 (P36969 whole entry, looked up): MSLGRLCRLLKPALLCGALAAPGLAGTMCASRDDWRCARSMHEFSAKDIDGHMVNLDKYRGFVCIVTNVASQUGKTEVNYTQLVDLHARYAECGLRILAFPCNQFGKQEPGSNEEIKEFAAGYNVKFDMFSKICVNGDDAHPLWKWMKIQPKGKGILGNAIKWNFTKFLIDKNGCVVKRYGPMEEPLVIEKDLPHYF
# Outline: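 qHTS, GR-coupled: GPX4 200 nM + cpd 30 min RT → GSH 1 mM, NADPH 0.5 mM, GR 100 nM → CHP 0.5 mM start; fluor 340/450 at t0 and t15 min; no-enzyme wells as control.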
# HaCat = assay: Cytotoxic Profiling of Annotated Libraries Using Quantitative High-Throughput Screening (AID 1296008); settings: Five cell lines viability, CellTiter-Glo ATP luminescence, 48-72 h; max response: active compounds read low; also: potency is read from the fitted curve at half-maximal effect; nearly all actives have a fitted effect of over 60% in size
# Outline: (§1)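 Compounds were pin-transferred onto cells and incubated 48 or 72 hr at 37 degree Celsius, 95% humidity. CellTiter-Glo was added, plates sat 10 min at room temperature, then ATP-coupled luminescence was imaged as the viability read-out.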
# KB-3-1 = assay: as above; settings: Five cell lines viability, CellTiter-Glo ATP luminescence, 48-72 h; max response: active compounds read low
# Outline: as §1
# NIH3T3 = assay: as above; settings: Five cell lines viability, CellTiter-Glo ATP luminescence, 48-72 h; max response: active compounds read low
# Outline: as §1
# C33A = assay: Primary qHTS to identify gynecologic anti-cancer compounds using libraries of approved drugs and bioactive compounds (AID 1345084); settings: Gynecologic cancer cell panel viability, ATPlite luminescence, 48 h; series mostly up to 57.5 µM; also: nearly all actives have a fitted effect of over 55% in size; also: potency is read from the fitted curve at half-maximal effect
# Outline: (§2)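 In this quantitative HTS, cell killing is estimated from loss of ATP-dependent luciferase light. Cells see five compound concentrations over a 48 h exposure.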
# CAOV3 = assay: as above; settings: Gynecologic cancer cell panel viability, ATPlite luminescence, 48 h; activity change, negative = cytotoxicity: at 57.5 µM (top of the series)
# Outline: as §2
# CASKI = assay: as above; settings: Gynecologic cancer cell panel viability, ATPlite luminescence, 48 h; series mostly up to 57.5 µM
# Outline: as §2
# Es-2 = assay: as above; settings: Gynecologic cancer cell panel viability, ATPlite luminescence, 48 h; series mostly up to 57.5 µM
# Outline: as §2
# HeLa = assay: as above; settings: Gynecologic cancer cell panel viability, ATPlite luminescence, 48 h; activity change, negative = cytotoxicity: at 57.5 µM (top of the series)
# Outline: as §2
# Hek293T = assay: as above; settings: Gynecologic cancer cell panel viability, ATPlite luminescence, 48 h, control line for the selectivity index; activity change, negative = cytotoxicity: at 57.5 µM (top of the series) unless noted
# Outline: as §2
# JEG-3 = assay: as above; settings: Gynecologic cancer cell panel viability, ATPlite luminescence, 48 h; series mostly up to 57.5 µM
# Outline: as §2
# OV90 = assay: as above; settings: Gynecologic cancer cell panel viability, ATPlite luminescence, 48 h; series mostly up to 57.5 µM
# Outline: as §2
# PA-1 = assay: as above; settings: Gynecologic cancer cell panel viability, ATPlite luminescence, 48 h; series mostly up to 57.5 µM
# Outline: as §2
# SKOV3 = assay: as above; settings: Gynecologic cancer cell panel viability, ATPlite luminescence, 48 h; series mostly up to 57.5 µM
# Outline: as §2
# Tov-21-G = assay: as above; settings: Gynecologic cancer cell panel viability, ATPlite luminescence, 48 h; activity change, negative = cytotoxicity: at 57.5 µM (top of the series) unless noted
# Outline: as §2
# Tov112D = assay: as above; settings: Gynecologic cancer cell panel viability, ATPlite luminescence, 48 h; series mostly up to 57.5 µM
# Outline: as §2
# [4] = P-glycoprotein substrates identified in KB-8-5-11 adenocarcinoma cell line, qHTS therapeutic library screen (AID 1346987); also: potency is read from the fitted curve at half-maximal effect; nearly all actives have a fitted effect of over 65% in size
# Outline: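 Luminescence from CellTiter-Glo, read 5 min after addition, quantified survival of KB-8-5-11 (P-gp-overexpressing) cells exposed to compounds for 72 h. AC50 was derived from concentration-response curves.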
# [5] = test system: Zika virus NS2B-NS3 protease (unlinked complex); assay: Primary screen GU Rhodamine qHTS for Zika virus inhibitors: Unlinked NS2B-NS3 protease assay (AID 1347159); also: potency is read from the fitted curve at half-maximal effect; nearly all actives have a fitted effect of over 60% in size
# Outline: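 In dose–response format, inhibition of unlinked protease (25 nM) was measured with 1.5 microM bis-peptide Rhodamine110 substrate. Aprotinin served as the intraplate control.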
# [6] = Primary qHTS for inhibitors of nuclear receptor binding SET domain protein 2 (NSD2) in an isogenic RCH-ACV NSD2 p.E1099K mutant (9B) (AID 1645876); also: potency is read from the fitted curve at half-maximal effect; nearly all actives have a fitted effect of over 70% in size
# [7] = molecular target: Cytochrome P450 3A4 (Homo sapiens) (UniProt P08684); assay: Cytochrome P450 family 3 subfamily A member 4 (CYP3A4) small molecule antagonists: luciferase qHTS assay (AID 1645841; active = well fitted curve in the direction sought with a large enough effect in the repeat runs; inconclusive = weak or mixed curves; inactive = no such curve, though single readings can be large; an effect the other way counts as inactive or inconclusive; also: potency is read from the fitted curve at half-maximal effect; nearly all actives have a fitted effect of over 45% in size)
# Sequence of UniProt P08684 (P08684 whole entry, looked up): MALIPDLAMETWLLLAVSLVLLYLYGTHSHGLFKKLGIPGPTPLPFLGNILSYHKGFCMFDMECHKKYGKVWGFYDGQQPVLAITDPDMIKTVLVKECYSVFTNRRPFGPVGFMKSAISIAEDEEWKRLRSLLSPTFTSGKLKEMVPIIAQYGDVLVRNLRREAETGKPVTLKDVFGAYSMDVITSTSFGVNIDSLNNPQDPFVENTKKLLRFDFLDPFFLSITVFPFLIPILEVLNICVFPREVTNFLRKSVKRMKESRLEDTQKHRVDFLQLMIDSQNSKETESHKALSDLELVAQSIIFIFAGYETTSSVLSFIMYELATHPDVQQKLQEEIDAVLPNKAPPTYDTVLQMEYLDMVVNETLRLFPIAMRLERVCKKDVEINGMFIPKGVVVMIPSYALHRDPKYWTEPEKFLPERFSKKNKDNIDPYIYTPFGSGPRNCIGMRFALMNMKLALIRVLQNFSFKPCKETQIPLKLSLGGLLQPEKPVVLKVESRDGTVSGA
# Outline: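 P450-Glo CYP3A4 enzyme with proluciferin substrate was preincubated with DMSO-dissolved compounds for 10 min at room temperature. NADPH regeneration solution started a 1 h reaction. Detection reagent stopped it, and luminescence was read after 20 min.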
# [8] = molecular target: Cytochrome P450 2C9 (Homo sapiens) (UniProt P11712); assay: Cytochrome P450 family 2 subfamily C member 9 (CYP2C9) small molecule antagonists: luciferase biochemical (cell-free) qHTS assay (AID 1645842; active = well fitted curve in the direction sought with a large enough effect in the repeat runs; inconclusive = weak or mixed curves; inactive = no such curve, though single readings can be large; an effect the other way counts as inactive or inconclusive; also: nearly all actives have a fitted effect of over 55% in size)
# Sequence of UniProt P11712 (P11712 whole entry, looked up): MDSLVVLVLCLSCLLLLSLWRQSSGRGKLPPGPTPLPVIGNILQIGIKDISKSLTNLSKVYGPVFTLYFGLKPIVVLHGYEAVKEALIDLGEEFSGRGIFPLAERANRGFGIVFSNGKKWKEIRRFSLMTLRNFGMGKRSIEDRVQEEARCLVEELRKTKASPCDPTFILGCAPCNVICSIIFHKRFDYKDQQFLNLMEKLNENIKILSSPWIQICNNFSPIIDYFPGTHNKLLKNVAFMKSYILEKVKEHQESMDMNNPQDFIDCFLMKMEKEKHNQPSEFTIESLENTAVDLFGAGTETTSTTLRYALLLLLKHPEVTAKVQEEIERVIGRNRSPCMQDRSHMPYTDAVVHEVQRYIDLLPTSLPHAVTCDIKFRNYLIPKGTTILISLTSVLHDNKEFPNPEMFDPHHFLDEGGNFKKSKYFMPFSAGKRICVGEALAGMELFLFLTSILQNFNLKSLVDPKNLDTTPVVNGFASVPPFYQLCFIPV
# Outline: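 P450-Glo CYP2C9 system: proluciferin substrate with enzyme in mix containing 0.4% BSA, 10 min at room temperature, then NADPH regeneration solution added and incubated 1 h at 37C. Detection reagent stopped reaction; luminescence read after 20 min as RLU.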
# [9] = Primary qHTS for inhibitors of nuclear receptor binding SET domain protein 2 (NSD2) in an RCH-ACV wild type WT cells (2C) (AID 1645877); settings: activity change, negative = cell killing: at 44.9 µM (top of the series) unless noted; also: potency is read from the fitted curve at half-maximal effect; nearly all actives have a fitted effect of over 70% in size
# [10] = molecular target: Glutathione peroxidase 1 (Homo sapiens) (UniProt P07203); assay: Primary qHTS Assay for Inhibitors of Recombinant Selenoprotein Glutathione Peroxidase 1 (GPX1) (AID 1845191); settings: activity, negative = inhibition: at 48.8 µM (top of the series); also: potency is read from the fitted curve at half-maximal effect; nearly all actives have a fitted effect of over 65% in size
# Sequence of UniProt P07203 (P07203 whole entry, looked up): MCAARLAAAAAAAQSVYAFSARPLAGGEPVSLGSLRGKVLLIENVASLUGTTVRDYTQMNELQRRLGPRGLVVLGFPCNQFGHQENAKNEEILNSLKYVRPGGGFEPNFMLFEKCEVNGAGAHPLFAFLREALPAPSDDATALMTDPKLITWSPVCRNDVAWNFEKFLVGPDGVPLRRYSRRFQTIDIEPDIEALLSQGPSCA
# Outline: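 GPX1 10 nM, GR 100 nM, GSH 1 mM, NADPH 0.5 mM, CHP 0.5 mM (final). 30-min cpd preincubation, RT. Ex340/Em450 read t=0, t=15 min.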
# [11] = Primary fluorescence-based thiol-reactive (MSTI) qHTS assay for identification of artifact compounds. (AID 1845221);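 also: thiol-reactive compounds lower the probe fluorescence signal; nearly all actives have a fitted effect of over 65% in size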
# Outline: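 One-hour, room-temperature, dark incubation of compound with 4 uM MSTI in PBS (pH 7.4, 2% DMSO) precedes a fluorescence read at 525 nm excitation, 598 nm emission; Hill-equation fitting yields concentration-response values.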
# Tags tell the direction and shape of the fitted curve.
compound,measurement,setting,value
Cn1c(=O)n(-c2ccc(C(C)(C)C#N)cc2)c2c3cc(C#Cc4cccnc4)ccc3ncc21,Potency,[1],inactive
same,Potency,[2],inactive
same,Potency,[3],inactive
same,Potency,HaCat,"inconclusive [inhibitor, full curve]"
same,Potency,KB-3-1,active: 0.142 µM
same,Potency,NIH3T3,active: 0.2 µM
same,Potency,C33A,"inconclusive [cytotoxic, full curve]"
same,Potency,CAOV3,inconclusive
same,Potency,CASKI,"inconclusive [cytotoxic, full curve, poor fit]"
same,Potency,Es-2,inconclusive
same,Potency,HeLa,"inconclusive [cytotoxic, full curve, poor fit]"
same,Potency,Hek293T,active: 0.0891 µM
same,Potency,JEG-3,"inconclusive [cytotoxic, single point]"
same,Potency,OV90,active: 0.224 µM
same,Potency,PA-1,active: 282 nM
same,Potency,SKOV3,"inconclusive [cytotoxic, full curve, poor fit]"
same,Potency,Tov-21-G,active: 0.158 µM
same,Potency,Tov112D,"inconclusive [cytotoxic, full curve]"
Cc1nnsc1C(=O)Nc1ccc(-n2nc(C(F)(F)F)cc2C(F)(F)F)cc1,Potency,[4],"inconclusive [inhibitor, partial curve, poor fit]"
same,Potency,[5],"inconclusive [inhibitor, partial curve]"
same,Potency,[1],"inconclusive [inhibitor, single point]"
same,Potency,[2],active: 10.7 µM
same,Potency,[6],active: 20.5 µM
same,Potency,HaCat,"inconclusive [inhibitor, single point]"
same,Potency,KB-3-1,"inconclusive [inhibitor, single point]"
same,Potency,NIH3T3,"inconclusive [inhibitor, single point]"
same,Potency,C33A,inactive
same,Potency,SKOV3,inactive
COc1cc2nc(N3CCCC3)nc(NCCCCCN3CCCC3)c2cc1OC,Potency,[2],active: 4.77 µM
same,Potency,[7],"inconclusive [falling, single point]"
same,Potency,[8],inactive
same,Potency,[9],active: 5.15 µM
same,Potency,[10],"inconclusive [inhibitor, single point]"
same,Potency,[3],"inconclusive [inhibitor, single point]"
same,Potency,[11],inactive
same,Potency,HaCat,active: 18.4 µM
same,Potency,KB-3-1,active: 16.4 µM
same,Potency,NIH3T3,"inconclusive [inhibitor, single point]"
same,Potency,C33A,active: 15.8 µM
same,Potency,CAOV3,"inconclusive [cytotoxic, partial curve, poor fit]"
same,Potency,CASKI,"inconclusive [cytotoxic, partial curve, poor fit]"
same,Potency,Es-2,"inconclusive [cytotoxic, single point]"
same,Potency,Hek293T,active: 15.8 µM
same,Potency,JEG-3,"inconclusive [cytotoxic, single point]"
same,Potency,OV90,active: 25.1 µM
same,Potency,SKOV3,active: 12.6 µM
same,Potency,Tov-21-G,"inconclusive [cytotoxic, partial curve]"
same,Potency,Tov112D,"inconclusive [cytotoxic, partial curve, poor fit]"
